Reference: PubChem BioAssay AID1347044 (National Center for Advancing Translational Sciences (NCATS), 2019)
Several values for one entry are separate records, joined by “and”; a condition that tells them apart may be missing. Identical values can stand only once. This is one part of the list. The main result of the screen is listed elsewhere. These columns were measured beside it and carry no call. Compounds called inactive in the main read-out are mostly missing here. The note in brackets gives the kind of curve behind each potency; many fits are weak.

Experiment: Natriuretic polypeptide receptor (hNpr1) antagonism - Confirmation; further: nearly all actives have a fitted effect of over 70% in size
Settings: HEK293 hNpr1 cGMP GloSensor luminescence, ANP-stimulated; measured here: HEK-hNpr1 cytotoxicity, CellTiter-Glo
Procedure, shortened: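 HEK293 cells co-expressing hNpr1 and GloSensor cGMP sensor preloaded 2 h with 2% GloSensor reagent, compounds added 30 min at room temperature, then 0.1 nM hNppA for 20 min; luminescence read before and after agonist. Cytotoxicity counter-screen run.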
Tags describe the fitted curve by direction and shape.

| Structure (SMILES) | CC50 |
| --- | --- |
| CCC(=O)N1CCc2sc(C(=O)N3CCN(c4cccc(Cl)c4)CC3)cc2C1 | 19.3 µM [falling, partial curve] |
| O=S(=O)(N[C@H]1CO[C@H]2[C@@H]1OC[C@@H]2Nc1nccc(-c2ccc3c(c2)OCO3)n1)c1ccc2ccccc2c1 | 19.3 µM [falling, partial curve] |
| COc1ccc(C(=O)N2CCn3c(nn(-c4ccc(Cl)cc4)c3=O)C2)cc1 | 21.7 µM [falling, partial curve] |
| O=S(=O)(c1ccc2c(c1)CCCC2)N1CCCC(Cn2cnc3cccnc32)C1 (stereo unspecified) | 27.3 µM [falling, single point] |
| Cc1cccc(C(=O)N2CCC(Oc3ccc(-c4noc(C(C)C)n4)cc3)C2)c1 (stereo unspecified) | 27.3 µM [falling, partial curve] |
| COc1ccc(C2Cn3nnc(C(=O)N4CCN(C(=O)CCc5ccccc5)CC4)c3CO2)cc1 (stereo unspecified) | 30.6 µM [falling, single point] |
| Cn1ccc2c(C(=O)NCc3cccnc3)nc(Nc3ccccc3)cc21 | 28 µM [falling, partial curve] |
| Cc1ccc(NC(=O)C2CCN(c3cc(C(F)(F)F)ncn3)CC2)cc1F | 15.3 µM [falling, partial curve] |
| N#Cc1ccc(C(=O)NC2CCN(c3cc(-c4ccc(Cl)cc4)[nH]n3)CC2)cc1 | 19.3 µM [falling, partial curve] |
| Cn1nccc1-c1ncc2c(n1)OCCN(Cc1ccc(F)cc1F)C2=O | 31.4 µM [falling, partial curve] |
| COc1ccc(F)cc1Nc1cnc2ccc(N(C)Cc3cccnc3)nn12 | 31.4 µM [falling, partial curve] |
| Cc1ccccc1-c1cnc2[nH]cc(CC(=O)N3CCOCC3)c2c1 | 11.1 µM [falling, partial curve] |
| Cc1nn2c(c1-c1ccccc1Oc1ccccc1)N(Cc1ccccc1O)CCC2 | 62.7 µM [falling, single point] |
| O=C(N1CCOCC1)N1C2CCC1CN(c1ccc(C(F)(F)F)cc1)C2 | 21.7 µM [falling, partial curve] |
| O=C(Nc1cccc(Br)c1)C1CCN(c2cc(C(F)(F)F)ncn2)CC1 | 30.6 µM [falling, single point] |
| CCc1cccc(NC(=O)Cn2c(N(C)Cc3ccccc3)nc(C)cc2=O)c1 | 15.3 µM [falling, partial curve] |
| O=C(NCCCc1ccccc1)C1CCN(c2cc(C(F)(F)F)ncn2)CC1 | 19.3 µM [falling, partial curve] |
| CC(Oc1ccccc1)C(=O)N1CCC(n2cc(-c3nc(-c4ccccc4)no3)nn2)CC1 (stereo unspecified) | 24.3 µM [falling, partial curve] |
| COCc1nc(-c2ccc(OC3CCN(Cc4ccc(C(F)(F)F)cc4)C3)cc2)no1 (stereo unspecified) | 10.9 µM [falling, partial curve] |
| Cc1noc(C)c1CN1CCc2nc(C(=O)Nc3cccc(C(F)(F)F)c3)oc2CC1 | 31.4 µM [falling, partial curve] |
| COc1ccc(-c2noc(CC3CCN(C(=O)c4ccc5c(c4)OCO5)CC3)n2)cc1 | 6.11 µM [falling, full curve] |

| Structure (SMILES) | CC50 |
| --- | --- |
| CN(C)c1ccc(C(=O)N2CCC3(CC2)N=C(c2ccc(Br)cc2)NO3)cc1 | 24.3 µM [falling, partial curve] |
| O=C(CCC1CCCN(S(=O)(=O)c2ccccc2)C1)N1CCN(c2ccccn2)CC1 (stereo unspecified) | 21.7 µM [falling, partial curve] |
| COc1ccc(-c2noc(CC3CCN(C(=O)CCc4ccccc4)CC3)n2)cc1 | 24.3 µM [falling, partial curve] |
| Cc1cccc2c1nc1n2[C@@H](CNS(=O)(=O)Cc2ccccc2)COC1 | 35.3 µM [falling, partial curve] |
| CC1=NS(=O)(=O)N(C)C=C1C(=O)OCc1noc(-c2cccs2)n1 | 27.3 µM [falling, single point] |
| CC1=C[C@@H](CN2CCN(c3ncccn3)CC2)[C@H](C(C)C)C[C@H]1Cc1nnc(-c2ccccc2F)o1 | 24.3 µM [falling, partial curve] |
| CCOc1ccccc1C(=O)N1CCC(Cc2nc(-c3ccc(OC)cc3)no2)CC1 | 19.3 µM [falling, partial curve] |
| O=C(Nc1ccc(Cl)cc1)c1nc2c(o1)CCN(CC1CCCC1)CC2 | 31.4 µM [falling, partial curve] |
| NS(=O)(=O)c1ccc(CCNC(=O)c2cc3n(n2)CC(c2ccc(Cl)cc2)OC3)cc1 (stereo unspecified) | 24.3 µM [falling, partial curve] |
| COc1cccc(-c2noc(CC3CCN(C(=O)c4ccccc4C)CC3)n2)c1 | 19.3 µM [falling, partial curve] |
| O=C(NCc1ccc(N2CCCC2)cc1)C1CCCN(c2cnn(Cc3ccccc3)c(=O)c2)C1 (stereo unspecified) | 27.3 µM [falling, single point] |
| CN(Cc1ccccc1)C(=O)c1ccc2c(c1)NC(C)(COc1cccnc1)CO2 (stereo unspecified) | 28 µM [falling, partial curve] |
| Cc1ncsc1CN1CCC2(CC1)CC(Cc1nc(-c3ccccc3)no1)CCO2 (stereo unspecified) | 15.3 µM [falling, partial curve] |
| COc1cccc(CN2CCN(c3nc4c(s3)c(C)nn4C)CC2=O)c1 | 21.7 µM [falling, partial curve] |
| Cc1ccc2nc(C3CCCN(Cc4ccc(C#N)cc4)C3)[nH]c(=O)c2c1 (stereo unspecified) | 21.7 µM [falling, partial curve] |
| CC(C)c1ccc(CNC(=O)c2ccc(CN3C(=O)NC4(CCOCC4)C3=O)cc2)cc1 | 24.3 µM [falling, partial curve, poor fit] |
| COc1cccc(CC(=O)N2CCCN(c3cc(-c4ccc(Br)cc4)[nH]n3)CC2)c1 | 24.3 µM [falling, partial curve] |
| O=C(c1ccncc1)N1CC2CCC(C1)N2Cc1ccc(-c2ccsc2)cc1 | 6.85 µM [falling, full curve] and 6.85 µM [falling, partial curve] |
| CC(C)(C)C(=O)N[C@H]1C[C@@H](Cc2cc(CN3CCN(c4ccccc4)CC3)on2)C1(C)C | 17.2 µM [falling, partial curve] |
| O=C(c1ccc(F)c(Cl)c1)N1CCC(n2cc(-c3nc(-c4ccccc4)no3)nn2)CC1 | 24.3 µM [falling, partial curve] |
| O=C(c1ccccc1)N1CCN(c2cc(-c3ccc(Cl)cc3)[nH]n2)CC1 | 34.3 µM [falling, single point] |

| Structure (SMILES) | CC50 |
| --- | --- |
| CN(C)c1ccc(CN[C@H]2CO[C@H]3[C@@H]2OC[C@H]3OC(=O)Nc2ccc(Oc3ccccc3)cc2)cc1 | 19.3 µM [falling, partial curve] |
| COc1c(C)cccc1C(=O)N1CCOC(c2ccc(Cl)c(Cl)c2)C1 (stereo unspecified) | 13.7 µM [falling, partial curve] |
| O=C1c2cnc(-c3ccc(Cl)cc3)nc2OCCN1Cc1ccccc1 | 39.6 µM [falling, partial curve] |
| CCCOc1ccccc1C(=O)N1CCc2onc(-c3ccccc3)c2C1 | 38.5 µM [falling, single point] |
| O=C(Cc1ccccc1Cl)N1CCC(Cc2nc(-c3ccc(F)cc3)no2)CC1 | 27.3 µM [falling, single point] |
| CCc1ccc(NC(=O)c2cc3n(n2)CC(c2ccc(Cl)cc2)OC3)cc1 (stereo unspecified) | 24.3 µM [falling, partial curve, poor fit] |
| CC(C)c1ccc(NC(=O)N[C@H]2CO[C@H]3[C@@H]2OC[C@H]3OC(=O)Nc2ccc(Oc3ccccc3)cc2)cc1 | 17.2 µM [falling, partial curve] |
| CCOc1ccc(C(=O)N2CCN(c3cc(-c4ccc(Cl)cc4)[nH]n3)CC2)cc1 | 15.3 µM [falling, partial curve] |
| CC1(C(=O)NCc2ccc3c(c2)OCO3)CCc2cnc(NCc3ccccc3)nc21 (stereo unspecified) | 35.3 µM [falling, partial curve] |
| O=C(Nc1cccc(F)c1)C1CCN(c2cc(C(F)(F)F)ncn2)CC1 | 19.3 µM [falling, partial curve] |
| Clc1ccc(CN2CCC3(CC2)CC(c2cccnc2)=NO3)cc1 | 24.1 µM [falling, partial curve] |
| Cc1ccc(OCC(=O)N2CCCC(c3nn(C)c(=O)n3C(C)C)C2)cc1 (stereo unspecified) | 27.3 µM [falling, single point] |
| COc1ccc(C(=O)N2CCCN(c3cc(-c4ccc(Br)cc4)[nH]n3)CC2)cc1F | 21.7 µM [falling, partial curve] |
| COc1ccc(C)cc1NC(=O)Cn1c(N(C)Cc2ccccc2)nc(C)cc1=O | 24.3 µM [falling, partial curve] |
| O=C(c1ccc(Cl)cc1)N1CCCC(n2cc(-c3nc(-c4ccccc4)no3)nn2)C1 (stereo unspecified) | 19.3 µM [falling, partial curve] |
| COc1ccc(NC(=O)c2cc3n(n2)CC(c2ccc(Br)cc2)OC3)cc1OC (stereo unspecified) | 30.6 µM [falling, single point] |
| COc1ccc(N2CCN(c3nc(C(=O)NCc4cccc(C)c4)cs3)CC2)cc1 | 19.3 µM [falling, partial curve] |
| O=C(Nc1ccon1)[C@@H]1C[C@@H](c2ccc(F)cc2)N(Cc2ccccc2)C1 | 35.3 µM [falling, partial curve] |
| O=C(c1ccc(F)c(F)c1)N1CCN(C(=O)c2nnn3c2COC(c2ccc(Cl)cc2)C3)CC1 (stereo unspecified) | 15.3 µM [falling, partial curve] |
